Assay results from patent US8440810B2, “Riboswitches, methods for their use, and compositions for use with riboswitches” (Yale University, priority 2002, dated 2013).
Residues, ends and D or L forms follow the SMILES beside them.

Columns and labels:
[1] = system: 179 lysC RNA; assay: In-line probing of 179 lysC RNA; conditions: for structural modulation of the RNA: 100 μM analog
[2] = system: 251 yitJ RNA; format: binding, B. subtilis

Row | Compound | structural modulation of the RNA [1] | structural modulation of the RNA after acid pretreatment of the compound ([1]; pretreatment with 6 N HCl at 115° C. for 23 hr) | structural modulation of the RNA [2]
1 | NCCCC[C@@H](N)C(=O)O [D-lysine] | does not undergo structural modulation | intermediate level of structural modulation | 
2 | NCCCCC[C@H](N)C(=O)O [L-α-homolysine] | failures |  | 
3 | C[S+](CC[C@H](N)C(=O)O)C[C@H]1O[C@@H](n2cnc3c(N)ncnc32)[C@H](O)[C@@H]1O (some centres unmarked) [SAM, S-adenosylmethionine] |  |  | undergoes conformational modulation
4 | C[C@H](N)C(=O)N[C@@H](C)C(=O)O [ala-ala] (H-Ala-Ala-OH) | does not undergo allosteric modulation |  | 
5 | C[C@H](N)C(=O)N[C@@H](CCCCN)C(=O)O [ala-lys] (H-Ala-Lys-OH) | does not undergo allosteric modulation |  | 
6 | C[C@H](NC(=O)[C@@H](N)CCCCN)C(=O)O [lys-ala] (H-Lys-Ala-OH) | does not undergo allosteric modulation |  | 
7 | NCCCC[C@H](NC(=O)[C@@H](N)CCCCN)C(=O)O [lys-lys] | does not undergo allosteric modulation |  | 
